Laboratory results taken from PubChem BioAssay AID2546 (National Center for Advancing Translational Sciences (NCATS), 2010).
The campaign covered roughly 310,000 compounds. About 11,000 (3.5%) were called active. The shares of active, inactive and inconclusive entries below differ from those in the screen. The call rests on the fitted dose curve; in most records, active means well fitted inhibition curve with a large enough effect; inconclusive means small, poorly fitted or top-dose-only effect, or effect the other way; inactive means flat fitted curve, though single readings scatter. No potency is given beside an inconclusive call; the fits are too rough.

Assay: VP16 counterscreen qHTS for inhibitors of ROR gamma transcriptional activity;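 further: Gal4-VP16 expression switched on by copper sulfate through the metallothionein promoter; nearly all actives have a fitted effect of over 50% in size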
Settings: Drosophila S2 Gal4-VP16 UAS-luciferase, luminescence, 20 h; activity, negative = inhibition: at 53.6 µM (top of the series)
On the % scale 0 is the no-effect control and ±100 the full control effect; potency means the concentration at half of the fitted maximal effect; tags describe the fitted curve by direction and shape.

Q: Which Potency does the source give for CN(CCO)c1cc(Sc2nc3ccccc3s2)c2nonc2c1[N+](=O)[O-] here?
A: active: 12.6 µM

Q: For O=C(NCC1CCN(Cc2ccc(F)cc2)CC1)C1CCCN(c2ncnc3c2nc2n3CCCCC2)C1 (configuration not stated), which Potency is on record?
A: inactive

Q: Which Potency does the source give for c1ccc(Cc2nnc(Sc3ccccc3)c3ccccc23)cc1 here?
A: inconclusive [inhibitor, single point]

Q: For CCc1c(C)nc2c(-c3ccccc3)c(C)[nH]n2c1=O, which Potency is on record?
A: inconclusive [inhibitor, single point]

Q: Which Potency does the source give for Cc1ccc(NC(=S)Nc2cccnc2)c(S(=O)(=O)N2CCCCC2)c1 here?
A: active: 15.8 µM

Q: With Cc1cnc(NC2=NCCC2)s1 as the compound, how does the Potency read?
A: inconclusive [inhibitor, single point]

Q: With O=C1c2cccc3c([N+](=O)[O-])ccc(c23)C(=O)N1Cc1cccnc1 as the compound, how does the Potency read?
A: inconclusive [inhibitor, single point]

Q: With CC(=O)N(Cc1ccc(F)cc1)C1=C(NCc2ccccc2)C(=O)c2ccccc2C1=O as the compound, how does the Potency read?
A: inconclusive [inhibitor, single point]

Q: Which Potency does the source give for CCOCC(=O)Nc1cc([N+](=O)[O-])ccc1OC here?
A: inactive

Q: With CC(C)CCOC(=O)/C(=C/c1ccco1)NC(=O)/C=C/c1ccccc1 as the compound, how does the Potency read?
A: inactive

Q: With Cc1ccccc1OC(=O)n1c(=S)oc2cc(Cl)ccc21 as the compound, how does the Potency read?
A: inconclusive [inhibitor, full curve]

Q: For O=C(NNc1nc2ccccc2o1)c1ccccc1, which Potency is on record?
A: inconclusive [inhibitor, partial curve]

Q: Which Potency does the source give for Cc1oc2c(c1C(=O)NCCCC(=O)O)CCCC2 here?
A: inconclusive [inhibitor, full curve, poor fit]

Q: Which Potency does the source give for O=C(NNC1=C(C(=O)C(F)(F)F)CCC1)c1ccccc1Cl here?
A: active: 6.31 µM

Q: Which Potency does the source give for Cc1cc(C(=O)N/N=C/c2ccc([N+](=O)[O-])s2)n[nH]1 here?
A: inconclusive [inhibitor, partial curve, poor fit]

Q: Which Potency does the source give for COc1ccc(CN2CCNC(=O)C2CC(=O)NCC(C)(C)N2CCOCC2)cc1C (configuration not stated) here?
A: inactive

Q: With COc1ccc(CN(C2CCCCC2C)S(=O)(=O)c2ccc(S(=O)(=O)N(C)C)cc2)cc1OC (configuration not stated) as the compound, how does the Potency read?
A: inactive

Q: Which Potency does the source give for CCCN1CCc2c(sc3nc(SCC)n(-c4ccc(OC)cc4)c(=O)c23)C1 here?
A: inactive

Q: For Cc1ccc(-c2ccc(C(=O)Nc3cccc(F)c3)o2)c2ccccc12, which Potency is on record?
A: inconclusive [inhibitor, full curve, poor fit]

Q: For Cc1cccc(-n2ncc3c(N(C)C4CCCCC4)ncnc32)c1, which Potency is on record?
A: active: 0.891 µM

Q: With CN(C)S(=O)(=O)c1ccc(N2C(=O)CC2(/C=C/c2ccccc2)C(=O)NC2CCCC2)cc1 (configuration not stated) as the compound, how does the Potency read?
A: inconclusive [activator, single point]

Q: With COC1(OC)C(/C=C/c2ccc(Cl)cc2)C(C#N)(C#N)C1(OC)OC (configuration not stated) as the compound, how does the Potency read?
A: inconclusive [inhibitor, single point]

Q: With O=C(/C=C/c1ccco1)NC(=S)Nc1ccccc1O as the compound, how does the Potency read?
A: inconclusive [inhibitor, single point]

Q: With Cc1cccc(-n2c(SCc3cc(=O)n4ccsc4n3)nc3ccccc32)c1 as the compound, how does the Potency read?
A: inactive

Q: With S=C(NCc1ccc2[nH]c3c(c2c1)CCCC3)Nc1ccccc1 as the compound, how does the Potency read?
A: active: 10 µM

Q: Which Potency does the source give for O=C(NC(=S)Nc1ccccn1)c1ccccc1 here?
A: inconclusive [inhibitor, single point]

Q: For Cc1ccc(S(=O)(=O)CCc2nnc(NC(=O)c3cccs3)s2)cc1, which Potency is on record?
A: inconclusive [activator, single point]

Q: For COc1cccc(/C=C/c2ccc3cccc(O)c3n2)c1, which Potency is on record?
A: active: 11.2 µM

Q: For CC(C)c1ccc(CCNC(=O)c2ccc([N+](=O)[O-])cc2)cc1, which Potency is on record?
A: inconclusive [inhibitor, single point]

Q: With COc1ccc(CCN(C)Cc2nc(-c3cnccn3)no2)cc1OC as the compound, how does the Potency read?
A: inactive

Q: Which Potency does the source give for Cc1ccc(C2CC2c2n[nH]c(=S)n2-c2ccc(C)cc2)cc1 (configuration not stated) here?
A: active: 5.62 µM

Q: With Cc1ccc(-c2[nH]ncc2/C=N/n2c(COc3ccccc3)nc3ccccc3c2=O)cc1 as the compound, how does the Potency read?
A: inconclusive [inhibitor, single point]

Q: For O=C(O)c1cccc(N2C(=S)N=C(Nc3ccccc3)C23CCCCC3)c1, which activity, negative = inhibition is on record?
A: inactive: 16.4% [at 10 µM]

Q: With O=C1NC(=Nc2ccccc2)CS1 as the compound, how does the Potency read?
A: inconclusive [inhibitor, single point]

Q: With CC(C(=O)N1CCN(C(=O)c2ccco2)CC1)n1sc2ccccc2c1=O (configuration not stated) as the compound, how does the Potency read?
A: inconclusive [inhibitor, single point]

Q: With CCOC(=O)Cn1nnc2c(sc3nc4c(c(-c5ccc(Cl)cc5)c32)CCC4)c1=O as the compound, how does the Potency read?
A: inconclusive [inhibitor, single point]

Q: Which Potency does the source give for O=c1onc2cnc3ccccc3n12 here?
A: inactive

Q: Which Potency does the source give for Cc1ccc(C)c(NC(NC(=O)c2ccccn2)C(Cl)(Cl)Cl)c1 (configuration not stated) here?
A: inactive

Q: For COC(=O)C1=C(C)NC2=C(C(=O)CC(C)(C)C2)C1c1ccsc1 (configuration not stated), which Potency is on record?
A: inactive

Q: With COc1ccccc1NC(=S)NC1CCCCCCCCCCC1 as the compound, how does the Potency read?
A: inconclusive [inhibitor, single point]

Q: For C/C(CC(=O)N1CCN(C=O)CC1)=N\NC(=O)c1ccc([N+](=O)[O-])cc1, which Potency is on record?
A: inconclusive [inhibitor, single point]

Q: With CCN(C(=O)COC(=O)c1cc(-c2ccc(C)o2)nc2ccccc12)C1CCS(=O)(=O)C1 (configuration not stated) as the compound, how does the Potency read?
A: inactive

Q: With Cc1cc(O)c(C(C[N+](=O)[O-])c2ccc(Cl)cc2Cl)c(=O)o1 (configuration not stated) as the compound, how does the Potency read?
A: inconclusive [inhibitor, single point]

Q: Which Potency does the source give for COc1ccc(CCC(=O)Nc2ccc(Cl)c(S(=O)(=O)N3CCCC3)c2)cc1 here?
A: inconclusive [inhibitor, single point]

Q: For S=C(NCCNCc1ccccc1)NC1CCCCC1, which Potency is on record?
A: inconclusive [inhibitor, single point]

Q: For COc1ccc(NS(=O)(=O)c2ccc3c(c2)N(C(C)=O)CC(C)S3)c(OC)c1 (configuration not stated), which Potency is on record?
A: inconclusive [inhibitor, single point]

Q: For Cn1cccc1/C=C1\SC(=S)N(NC(=O)c2ccc(F)cc2)C1=O, which Potency is on record?
A: active: 15.8 µM

Q: Which Potency does the source give for CCCCCC(=O)N/N=C(\C)c1ccccn1 here?
A: active: 0.562 µM

Q: For COc1ccc(CN(Cc2cc3ccc(C)cc3[nH]c2=O)Cc2nnnn2C2CCCC2)cc1, which Potency is on record?
A: inactive

Q: Which Potency does the source give for O=C(N/N=C/c1ccc([N+](=O)[O-])o1)c1cc2c(ccc3ccccc32)o1 here?
A: inconclusive [inhibitor, partial curve]

Q: For O=C(Cc1ccccc1)NC(=S)Nc1ccc2oc(-c3ccccc3F)nc2c1, which Potency is on record?
A: inconclusive [inhibitor, single point]

Q: For Oc1ccccc1-c1nnc(COc2ccc(Cl)cc2Cl)o1, which Potency is on record?
A: active: 4.47 µM

Q: Which Potency does the source give for COC(=O)C1=C(C(=O)OC)SC2(S1)C(C(=O)OC)=C(C(=O)OC)SC1=C2c2cccc(C)c2NC1(C)C here?
A: inconclusive [inhibitor, single point]

Q: With CN(CCC1CCOCC1)C(=O)C1CCC(=O)N(CCc2cccc(F)c2)C1 (configuration not stated) as the compound, how does the Potency read?
A: inactive

Q: For CN1CCN(C(c2ccccc2)c2ccccc2)CC1, which Potency is on record?
A: inconclusive [inhibitor, single point]

Q: Which Potency does the source give for Fc1ccc(-c2nn(-c3ccccc3)cc2CNCc2ccccc2)cc1 here?
A: inconclusive [inhibitor, single point]

Q: For CC(C(=O)Nc1ccccc1)c1ccc(-c2ccccc2)c(F)c1 (configuration not stated), which Potency is on record?
A: inconclusive [inhibitor, single point]

Q: For C/C(N)=C(/C#N)C(=O)CSc1nnc(-c2ccccc2Br)o1, which Potency is on record?
A: inconclusive [inhibitor, partial curve]

Q: For COc1cccc(Nc2ncc3ncc(=O)n(C[C@H]4CCCO4)c3n2)c1, which Potency is on record?
A: active: 11.2 µM

Q: For c1ccc(-c2ccccc2-c2nc(-c3ccncc3)no2)cc1, which Potency is on record?
A: inconclusive [inhibitor, single point]

Q: For CCOC(=O)c1csc(-n2nc(C)cc2C(F)(F)F)n1, which Potency is on record?
A: inconclusive [activator, single point]

Q: Which Potency does the source give for O=[N+]([O-])c1ccc(/C=N/Nc2nc(N3CCCCCC3)nc(N3CCCCCC3)n2)o1 here?
A: inconclusive [inhibitor, single point]

Q: Which Potency does the source give for Cc1ccc(NC(N)=S)cc1C here?
A: inconclusive [inhibitor, single point]

Q: Which Potency does the source give for CCCCn1c(SCC(=O)/C(C#N)=C(\C)N)nc2ccccc2c1=O here?
A: inconclusive [inhibitor, single point]

Q: Which Potency does the source give for CC(C)(C)OC(=O)CNC(=O)c1[nH]cnc1C(=O)NC(c1ccccc1)c1ccccc1 here?
A: inconclusive [inhibitor, single point]

Q: For CC(/C=N/n1c(-c2cccnc2)n[nH]c1=S)=C\c1ccccc1, which Potency is on record?
A: inconclusive [inhibitor, partial curve, poor fit]

Q: Which Potency does the source give for O=C(/C=C/c1ccc(Cl)c(Cl)c1)NC1=NCCS1 here?
A: inconclusive [activator, full curve]

Q: With Cc1cc(C)c(S(=O)(=O)NCc2ccncc2)c(C)c1 as the compound, how does the Potency read?
A: active: 8.91 µM

Q: For S=C(NCCCN1CCOCC1)N1CCN(c2nc(-c3ccccc3)cs2)CC1, which Potency is on record?
A: inactive

Q: For Cc1[nH]c2ccccc2c1SCC(=O)N1CCOCC1, which Potency is on record?
A: inconclusive [inhibitor, single point]

Q: For COC(=O)c1ccccc1NC(=S)NC(NC(=O)c1ccccc1[N+](=O)[O-])C(Cl)(Cl)Cl (configuration not stated), which Potency is on record?
A: inconclusive [inhibitor, single point]

Q: With C/C(=N/NC(=O)c1ccccc1O)c1ccc(N2C(=O)C3CCCCC3C2=O)cc1 (configuration not stated) as the compound, how does the Potency read?
A: inconclusive [inhibitor, single point]
